Experimental data from patent publication US5312736, “Anticoagulant analogues of the tissue factor extrinsic pathway inhibitor (EPI) with reduced affinity for heparin” (Novo Nordisk A/S, dated 1994).

Target: tissue factor / factor VIIa complex (human, UniProt P08709)
Assay: cell-based or functional assay

B1: native extrinsic pathway inhibitor (EPI), entire EPI protein expressed from pCMVEPIhGH (other)
chain: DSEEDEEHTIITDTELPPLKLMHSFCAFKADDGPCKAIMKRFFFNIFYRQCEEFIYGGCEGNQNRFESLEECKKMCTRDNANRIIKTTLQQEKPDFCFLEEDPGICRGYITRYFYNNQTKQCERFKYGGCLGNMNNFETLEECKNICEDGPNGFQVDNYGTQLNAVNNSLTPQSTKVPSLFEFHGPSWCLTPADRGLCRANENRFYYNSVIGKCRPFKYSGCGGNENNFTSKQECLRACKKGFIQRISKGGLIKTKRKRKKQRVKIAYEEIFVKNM
For B1, the “EPI activity [U/ml], chromogenic microplate assay (FVIIa/TF/FX, substrate S2222)” value was 8.3 U/ml.
